Screen size: about 110,000 compounds; about 230 (0.21%) showed an effect of 50% or more. Some of the results follow.
target: DPAP1 (Plasmodium falciparum, UniProt Q8IIJ9); experiment: primary screen, percent inhibition; read by cleavage of a fluorogenic dipeptide substrate; higher = more effect of the substance; parameters: species or system P. falciparum D10 trophozoite lysates; single well
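Further: 30 min substrate incubation versus DMSO and 10 µM JCP410 controls.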

Chain of DPAP1 (Q8IIJ9 whole entry, looked up): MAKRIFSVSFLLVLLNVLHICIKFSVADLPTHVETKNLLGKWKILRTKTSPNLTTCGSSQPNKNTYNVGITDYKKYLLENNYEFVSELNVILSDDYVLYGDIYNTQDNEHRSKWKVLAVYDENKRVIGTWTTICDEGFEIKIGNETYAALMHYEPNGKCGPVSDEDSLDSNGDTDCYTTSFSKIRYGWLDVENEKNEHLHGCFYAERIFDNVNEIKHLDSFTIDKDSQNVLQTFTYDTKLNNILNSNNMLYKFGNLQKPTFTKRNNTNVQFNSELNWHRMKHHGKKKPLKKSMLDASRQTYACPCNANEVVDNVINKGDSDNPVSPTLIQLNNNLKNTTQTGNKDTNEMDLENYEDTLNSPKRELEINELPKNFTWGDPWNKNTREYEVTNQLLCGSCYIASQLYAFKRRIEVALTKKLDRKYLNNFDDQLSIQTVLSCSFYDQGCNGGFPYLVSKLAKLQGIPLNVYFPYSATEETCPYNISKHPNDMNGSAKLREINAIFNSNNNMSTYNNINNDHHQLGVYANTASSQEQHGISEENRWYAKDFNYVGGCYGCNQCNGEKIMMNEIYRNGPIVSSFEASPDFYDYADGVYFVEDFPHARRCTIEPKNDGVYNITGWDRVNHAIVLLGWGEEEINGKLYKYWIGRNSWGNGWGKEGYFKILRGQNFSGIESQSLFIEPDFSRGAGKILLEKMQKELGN

Structure (SMILES) | % Inhibition @ 10 uM [%]
CC1CN(Cc2c(F)cccc2F)CC(C)O1 (centres unmarked) | -1.75
COc1ccc(NCN2C(=O)c3ccc(C)cc3C2=O)cc1 | 1.92
COc1cccc(CN2CCN(C(=O)CC(C)C)CC2)c1OC | -3.71
COc1cccc(CNC(=O)CCc2ccc(-n3cnc4cccnc43)cc2)c1OC | -0.965
CC/N=C1/SC(C(=O)Nc2ccc(Cl)cc2)CC(=O)N1CC (centres unmarked) | 0.121
Cc1cc2nc(C)c(-c3ccccc3)c(N)n2n1 | -3.09
Cc1ccnc(N2CCCC(C(=O)NCCCc3ccccc3)C2)n1 (centres unmarked) | 3.84
CS(=O)(=O)c1ncc(Cl)c(C(=O)Nc2nnc(SC/C=C/c3ccccc3)s2)n1 | 0.569
Cc1ccc(S(=O)(=O)NCC(C)(C)CNS(=O)(=O)c2ccc(C)cc2)cc1 | -4.63
CCNC(=O)c1ccccc1NC(=O)c1ccc(OC)cc1 | 0.512
Cc1ccc(CSc2nnc(N3C(N)=C(C#N)C(c4cccnc4)C4=C3CCCC4=O)s2)cc1 (centres unmarked) | -1.05
Cc1ccc(-c2cc(-c3cc(Cl)ccc3O)[nH]n2)cc1 | 3.18
CNC(=O)c1cccnc1NC(=O)c1ccccc1 | -7.17
Cc1ccc(CNC(=O)CCN2N=C(c3ccccc3)CCC2=O)cc1 | -0.0542
COc1ccc(S(=O)(=O)Nc2nccs2)cc1 | -6.12
CCOc1ccc(CCN2C(=O)c3ccncc3C2=O)cc1OCC | 7.25
COc1ccccc1N1CCN(S(=O)(=O)c2ccc(F)cc2)CC1 | 3.47
CCCCOc1cc(C2C(C#N)=C(N)OC3=C2C(=O)CC(C)(C)C3)ccc1OC (centres unmarked) | -0.988
C=CCOC(=O)c1sc(N2C(=O)c3oc4ccccc4c(=O)c3C2c2ccc(CC)cc2)nc1C (centres unmarked) | -2
O=C(Nc1c(C(=O)Nc2cccnc2)cnn1-c1ccccc1)c1ccccc1 | -3
COc1cccc(OCc2nc3ccccc3n2CCC(C)C)c1 | -2.92
Cc1c(Br)c(C(F)(F)F)nn1CC(=O)N1CCCCCC1 | -2.5
O=C(Nc1cccc2ccccc12)c1ccc2c(c1)OCO2 | 5.07
CCOC(=O)C1=CN(Cc2ccc(OC)c(OC)c2)C=C(C(=O)OCC)C1c1ccc(O)cc1 | 0.219
CC(CNC(=O)c1nnc(Cc2ccc3c(c2)OCO3)o1)c1ccccc1 (centres unmarked) | -0.602
CCn1c(C)c(CCC(=O)O)c(=O)n2nc(-c3ccccc3OC)cc12 | 2.39

Structure (SMILES) | % Inhibition @ 10 uM [%]
COc1ccc(N2C(=O)CC(Cc3cccc(C)c3)C2=O)cc1 (centres unmarked) | -0.822
COc1ccc(C(=O)c2oc3ccccc3c2NC(=O)c2ccc(Br)o2)cc1OC | 2.76
O=C1NC(=O)N(Cc2ccccc2)C(=O)/C1=C\c1ccc(O)c(O)c1 | 3.47
CC1CCN(S(=O)(=O)c2ccc(Cl)c(C(F)(F)F)c2)CC1 | 0.583
CCC[C@H](NC(=O)C1(NC(=O)c2ccc(F)cc2)CCCCC1)C(=O)c1nc2ccccc2o1 | -4.72
O=C(CSc1ccc2nnc(CCNS(=O)(=O)c3ccccc3)n2n1)c1ccccc1 | 0.0244
CCOC(=O)c1cccc(NC(=O)C(CC)CC)c1 | -0.0619
COc1cc(C2CC(C)(OC)Oc3cc4c(cc32)OCO4)cc(OC)c1OC (centres unmarked) | 9.62
Cc1n[nH]c2c1C1(C(=O)N(C)c3ccc(Br)cc31)C(C#N)=C(N)O2 (centres unmarked) | -1.84
Cc1ccc(S(=O)(=O)N2CCN(C/C=C/c3ccccc3)CC2)cc1 | 9.51
O=C(O)/C=C/c1cccc(/C=C/C(=O)O)c1 | -6.18
O=C1C2=C(C(c3ccccc3)=NCCN2)C(c2cccc(F)c2)N1c1ccccc1 (centres unmarked) | 5.79
CCC(=O)N1c2ccccc2C(N(C(C)=O)c2ccccc2)CC1C (centres unmarked) | 3.65
COCCNC(=O)c1cnn(-c2ccccc2Cl)c1C1CCN(C(=O)OC(C)(C)C)CC1 | -5.19
Cc1ccc(CSCc2ccc(C(=O)NCc3cccnc3)o2)cc1 | 3.79
COC(=O)C1=CN(C(C)C)C=C(C(=O)OC)C1c1ccccc1Cl | -3.23
Cc1cc(NC(=O)CCCS(=O)(=O)c2nc(-c3cccs3)cc(C(F)(F)F)n2)no1 | 11.6
COc1ccc(Cl)cc1C(=O)NCc1ccc(F)cc1 | -1.02
CNC(=O)/C(C#N)=C/c1c(Oc2cc(C)cc(C)c2)nc2ccccn2c1=O | -5.1
C=CCNC(=O)COc1ccc(Cl)cc1 | 3.24
CSc1ccc(CN2CCN(Cc3ccco3)CC2)cc1 | -1.06
COC(=O)C1=C(C)NC(=O)NC1c1ccccc1OCc1ccccc1 (centres unmarked) | 7.5
COc1ccc(/C=C/C(=O)c2oc3ccc(F)cc3c2C)cc1 | -5.38
Cc1ccccc1C1N2CCCN12 (centres unmarked) | -3.11
FC(F)(F)C1(C(F)(F)F)N=C(c2ccc(Cl)cc2)OC(N2CCOCC2)=N1 | 0.275
O=C(NCCCN1CCOCC1)C1CCN(c2nn3cc(-c4ccc(F)cc4)nc3s2)CC1 | -5.54

Structure (SMILES) | % Inhibition @ 10 uM [%]
CCOc1ccc(C2CC(=O)N=C(NC(=O)CCCOc3ccccc3)N2)cc1 (centres unmarked) | -3.01
O=C(NCCCN1CCN(Cc2ccccc2)CC1)c1cc(-c2ccncc2)nc2ccccc12 | -0.519
COc1ccc(C(=O)Nc2ccc(Cl)cc2C(=O)NCCO)cc1 | -3.09
O=c1cccc2n1C[C@H]1C[C@@H]2CN(Cc2ccc3c(c2)OCO3)C1 | -10.5
CC(Sc1nc(O)c2cnn(-c3ccccc3)c2n1)c1ccccc1 (centres unmarked) | 0.208
O=C(NCCO)c1ccc(CSc2nc(O)c3c4c(sc3n2)CCCC4)cc1 | 4
CN1CCC(N2CCCN(C)CC2)CC1 | -3.27
COc1ccc(C(=O)NC(N2CCCC2=O)(C(F)(F)F)C(F)(F)F)cc1 | -3.37
CCS(=O)(=O)c1ncc(Cl)c(C(=O)Nc2c(C(=O)c3ccc(F)cc3)oc3ccccc23)n1 | -2.85
C/C=C(\C)CN(C)CCN(CC)CC | -0.603
COc1ccc(/C=C/C(O)=C2\C(=O)Oc3ccccc3C2=O)c(OC)c1 | -1.46
Cc1cccc(NC(=O)c2cccc(Cl)c2)c1C | 0.467
CCOc1ccc(-c2cc(C(=O)NCCN3CCOCC3)c3cc(C)ccc3n2)cc1 | 2.4
COc1ccccc1S(=O)Cc1ccc(C(=O)NC2CCCC2)o1 (centres unmarked) | -6.89
COc1cc(S(=O)(=O)n2ccnc2C)c(OC)cc1Cl | -0.053
CC(=O)c1c(C)nc(S)c(C#N)c1-c1ccc(Cl)cc1 | 33.7
NCC/C=C1/c2ccccc2CSc2ccccc21 | -0.759
CC(=O)Nc1ccc(NC(=O)C2C3CCCCC32)cc1 (centres unmarked) | -2.62
CCCN1CCN(C(=O)CCc2c(C)nc3cc(-c4ccc(OC)cc4OC)nn3c2C)CC1 | 1.26
CC(O)CN(Cc1ccc(Cl)cc1Cl)CC(C)O (centres unmarked) | 0.217
COP(=O)(OC)C(Nc1ccc(Br)cc1)c1c[nH]c2ccccc12 (centres unmarked) | -5.23
O=C(CCc1ccccc1)Nc1ccccc1C(=O)NCc1ccco1 | -8.2
Cc1cccc(NCc2ccc([N+](=O)[O-])cc2)c1 | 1.08
COc1ccc(C2=CC(c3ccc(Cl)cc3Cl)n3ncnc3N2)cc1OC (centres unmarked) | -1.4
COc1cc(Oc2ccc(C(C)C)cc2C)nc(N)n1 | 0.565
O=C(Nc1ccc(C(=O)Nc2cccc(Cl)c2)cc1)c1ccccc1 | -1.43

Structure (SMILES) | % Inhibition @ 10 uM [%]
CCOC(=O)c1c(C)[nH]c(C)c1S(=O)(=O)NCC(=O)N(C)C1CCCCC1 | 2.41
COc1ccc(S(=O)(=O)c2cnc3cc4c(cc3c2N2CCCCC2)OCCO4)cc1 | -6.24
C=CCSc1nc2c(cc1C#N)CCC2 | -1.98
O=C(O)c1ccc(C2Nc3cccc4cccc(c34)N2)cc1 | 2.65
C=CCN1C(=O)S/C(=C/c2c(OC)cc(OC)cc2OC)C1=O | 3.81
CC1=C(C(=O)Nc2cc(C)ccn2)C(c2cnn(C)c2)C2=C(O)CC(c3ccccc3)CC2=N1 (centres unmarked) | -1.44
Sc1nnc2c3ccccc3n(Cc3ccccc3)c2n1 | 7.24
COC(=O)c1c(NC(=O)C2CSC(c3ccncc3)=N2)sc(C)c1C (centres unmarked) | -2.14
CC(=O)Nc1ccc(Cl)c2ccccc12 | 0.774
O=C1CSC(c2ccccc2)N1c1ncccn1 (centres unmarked) | 1.38
Cc1cccc(CN2CCC(C/N=c3/c(-c4ccccc4)c(O)c3=O)CC2)c1 | -6.87
COc1ccc(NC(=O)C2C3C=CC(C3)C2C(=O)O)c(OC)c1 (centres unmarked) | -5.06
COc1ccc(C2Nc3ccccc3N=C3CC(C)(C)CC(O)=C32)cc1OC (centres unmarked) | 5.29
Cc1ccc(S(=O)(=O)N2CCC(C(=O)N3CCc4ccccc4C3)CC2)cc1 | -0.169
CCSc1nnc(NC(=O)/C=C/c2ccccc2OC)s1 | 2.79
CCCC(C)C(=O)Nc1ccc(S(=O)(=O)N2CCCC2)cc1 (centres unmarked) | 3.17
COc1cccc(N(CC(=O)Nc2ccc(Br)cc2)S(=O)(=O)c2ccccc2)c1 | -3.28
COc1ccc(CN2CCNC(=O)C2CC(=O)O)c(F)c1 (centres unmarked) | -2.71
CCOC(=O)N1CCN(C(=O)C(C)(C)Oc2ccc(Cl)cc2)CC1 | -3.06
CCOC(=O)N1CCN(C(=O)CN(c2ccccc2OC)S(C)(=O)=O)CC1 | 4.08
CCOc1c(C)cc(-c2ncccc2O)cc1C | -0.415
CN1CCN(Cc2ccccc2C(F)(F)F)CC1 | 4.67
N#Cc1c(N)nc2c(c1-c1ccc(Cl)cc1)CCCC2 | 1.84

From publication PMC6919601, “Identification of Plasmodium dipeptidyl aminopeptidase allosteric inhibitors by high throughput screening” (PLoS ONE, 2019)
